Drawing on the supplement of paper PMC10723795, this text covers nucleolar normality score for 38 compounds.

This assay concerns RPE1. In words: nucleolar normality score relative to DMSO (fraction of DMSO control); RPE1 is a non-cancer human cell line; higher = more normal nucleoli (less nucleolar stress). The settings on record: 24 h.

Some of the results follow.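 How the source made its calls: active = more than 2 SD below the DMSO mean: under 0.85 at 10 µM or 0.885 at 1 µM; inactive = the rest.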 Single values are uncertain, as repeats are few or missing. Where a SMILES comes first, the peptide text is derived from it. [ ]: non-standard residue; d: D form. Dip = N[C@H](C(=O)O)C(c1ccccc1)c1ccccc1
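Further: fixed cells immunolabelled for nucleolin and UBF, 40 image fields per well in 384-well plates, per-cell score = nucleolin nucleolar/nucleoplasm intensity ratio divided by the matching UBF ratio.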

For the compound `Cc1ccc2c(=O)c3cccc(CC(=O)O)c3oc2c1C` [DMXAA (Vadimezan)], the nucleolar normality score reads like this: (1 µM) inactive: 1.01; (10 µM) inactive: 1.07.

As for `CCOC(=O)c1[nH]c2cc(Cl)ccc2c1C(C(=O)NC(C)(C)C)N(C=O)Cc1ccc(Cl)cc1` (stereo unspecified), the nucleolar normality score was inactive: 0.989 (1 µM) and inactive: 1.08 (10 µM).

As to `O=C1NCCCc2c1oc1ccc(O)cc21`, the nucleolar normality score was inactive: 1.03 (1 µM) and inactive: 1.13 (10 µM).

In the case of H-RRRRRRRRRRPILTRITLE-OH, the nucleolar normality score was inactive: 0.981 (1 µM) and inactive: 1.03 (10 µM).

For `C=CC(=O)Nc1cccc(Nc2nc(Nc3ccc(OCCOC)cc3)ncc2F)c1` [Spebrutinib (CC-292, AVL-292)], the nucleolar normality score (1 µM) was inactive: 0.925 and the nucleolar normality score (10 µM) was inactive: 1.

Consider `N#Cc1c(NC(=O)c2cccc3ccccc23)sc2c1CCCC2` [JNK Inhibitor IX], for which the nucleolar normality score is inactive: 1.05 (1 µM) and inactive: 0.898 (10 µM).

As to `CCC(=O)Nc1cccc(Oc2nc(Nc3ccc(N4CCN(C)CC4)cc3OC)ncc2Cl)c1`, the nucleolar normality score was inactive: 0.986 (1 µM) and inactive: 0.952 (10 µM).

As to `CCN(CC)CCCC(C)Nc1nc(C)cc(Nc2ccc3nc(C)cc(N)c3c2)n1` (stereo unspecified), the nucleolar normality score was inactive: 1.02 (1 µM) and inactive: 1.05 (10 µM).

For the compound `C#CCC(Cc1cnc2nc(N)nc(N)c2n1)c1ccc(C(=O)N[C@@H](CCC(=O)O)C(=O)O)cc1` (stereo partly specified) [Pralatrexate], the nucleolar normality score by setting is: (1 µM) active: 0.702; (10 µM) active: 0.794.

Consider `O=C(NOCC(O)CO)c1cc(Br)c(F)c(F)c1Nc1ccc(I)cc1F` (stereo unspecified), for which the nucleolar normality score reads like this: (1 µM) inactive: 1.06; (10 µM) inactive: 1.09.

As for `CC(C)c1c(-c2ccccc2)nc2c(C#N)c[nH]n2c1=O`, the nucleolar normality score (1 µM) is inactive: 0.903 and the nucleolar normality score (10 µM) was inactive: 1.07.

Regarding `C=C(C)[C@@H]1CC=C(CO)CC1` [Perillyl alcohol], the nucleolar normality score by setting is: (1 µM) inactive: 1; (10 µM) inactive: 1.02.

Take `CN(C)C/C=C/C(=O)Nc1cc2c(Nc3ccc(F)c(Cl)c3)ncnc2cc1O[C@H]1CCOC1` [Afatinib (BIBW2992) Dimaleate]: the nucleolar normality score is inactive: 1.02 (1 µM) and inactive: 1.09 (10 µM).

Turning to `C=C1CC[C@H]2C(=C)CC[C@H]3C(=C)C(=O)O[C@@H]3[C@@H]12` [Dehydrocostus Lactone], the nucleolar normality score is inactive: 1.02 (1 µM) and inactive: 0.896 (10 µM).

`CC(CN(C)C)Oc1nc(Nc2cc3cccc(Cl)c3cn2)cnc1C#N` (stereo unspecified): the nucleolar normality score was inactive: 1.01 (1 µM) and inactive: 1.06 (10 µM).

On to `CNC(=O)c1ccc(C)c(-n2c(C)cc(OCc3ccc(F)cc3F)c(Br)c2=O)c1`, for which the nucleolar normality score reads like this: (1 µM) inactive: 1.02; (10 µM) inactive: 1.06.

Take `Cc1cc(OCc2nnc(SC3CCCC3)n2-c2cccnc2)ccc1-c1ccc(S(C)(=O)=O)cc1`: the nucleolar normality score by setting is: (1 µM) inactive: 0.962; (10 µM) inactive: 1.02.

As to `NC(=O)c1cccc(N)c1` [INO-1001 (3-Aminobenzamide)], the nucleolar normality score is inactive: 1.03 (1 µM) and inactive: 1.03 (10 µM).

As to `Cc1ccc(-n2nc(C(C)(C)C)cc2NC(=O)Nc2ccc(OCCN3CCOCC3)c3ccccc23)cc1` [Doramapimod (BIRB 796)], the nucleolar normality score is inactive: 1.11 (1 µM) and inactive: 1.07 (10 µM).

As to `C=CC(=O)Nc1cccc(Oc2nc(Nc3ccc(N4CCN(C)CC4)cc3)nc3ccsc23)c1`, the nucleolar normality score is inactive: 0.975 (1 µM) and inactive: 0.992 (10 µM).

As to `Nc1ncnc2n[nH]c(Nc3ccc(F)cc3)c12`, the nucleolar normality score was inactive: 0.961 (1 µM) and inactive: 1.04 (10 µM).

Regarding `C[C@H](NC(=O)c1c(N)nn2cccnc12)c1cc2cccc(C#Cc3cnn(C)c3)c2c(=O)n1-c1ccccc1`, the nucleolar normality score is inactive: 0.983 (1 µM) and inactive: 0.978 (10 µM).

Take `C[C@@H]1CCCCCCCCCCCCC(=O)C1` [Muscone]: the nucleolar normality score is, setting by setting: (1 µM) inactive: 0.96; (10 µM) inactive: 1.02.

Consider `Cc1ccc2nc(NC(=O)CSc3nc4c(c(=O)n3-c3ccccc3)SCC4)sc2c1`, for which the nucleolar normality score by setting is: (1 µM) inactive: 1.03; (10 µM) inactive: 1.01.

As for `Cn1cc(-c2ccc3c(c2)CCN3C(=O)Cc2cccc(C(F)(F)F)c2)c2c(N)ncnc21`, the nucleolar normality score is, setting by setting: (1 µM) inactive: 1.01; (10 µM) inactive: 1.04.

As to `Oc1cccc(-c2nc(N3CCOCC3)c3oc4ncccc4c3n2)c1`, the nucleolar normality score is inactive: 0.971 (1 µM) and inactive: 1.03 (10 µM).

Regarding `C=CS(=O)(=O)NC1CCN(C(=O)CNc2cc(I)c(Cl)cc2OC)CC1` [K-Ras(G12C) inhibitor 9], the nucleolar normality score (1 µM) was inactive: 1.02 and the nucleolar normality score (10 µM) is inactive: 1.02.

Consider `CCN(CC)CCCCNc1ncc2cc(-c3cc(OC)cc(OC)c3)c(NC(=O)NC(C)(C)C)nc2n1`, for which the nucleolar normality score is inactive: 1.07 (1 µM) and inactive: 1.15 (10 µM).

For the compound `NCCCC[C@H](NC(=O)[C@@H](NC(=O)[C@H](Cc1c[nH]c2ccccc12)NC(=O)[C@H](CCCCN)NC(=O)[C@H](CCCCN)NC(=O)[C@H](Cc1c[nH]c2ccccc12)NC(=O)[C@H](Cc1c[nH]c2ccccc12)NC(=O)[C@H](CCCCN)NC(=O)[C@@H](N)CCCCN)C(c1ccccc1)c1ccccc1)C(N)=O` (H-KKWWKKW[Dip]K-NH2), the nucleolar normality score (1 µM) is inactive: 0.995 and the nucleolar normality score (10 µM) was inactive: 1.09.

As to `CCS(=O)(=O)c1cccc(-c2cc(C(=O)NC3CCN(C)CC3)c(C)c3[nH]c4ncc(C)cc4c23)c1`, the nucleolar normality score (1 µM) was inactive: 0.987 and the nucleolar normality score (10 µM) is inactive: 0.912.

Turning to `O=C(/C=C/c1ccc(O)c(O)c1)O[C@H](Cc1ccc(O)c(O)c1)C(=O)O` [Rosmarinic acid], the nucleolar normality score runs as follows: (1 µM) inactive: 0.984; (10 µM) inactive: 0.979.

`NC(=O)C1CCCc2c1[nH]c1ccc(Cl)cc21` (stereo unspecified) [Selisistat (EX 527)]: the nucleolar normality score (1 µM) is inactive: 1.04 and the nucleolar normality score (10 µM) is inactive: 1.08.

With `COc1ccc(-c2cc(=O)c3c(O)c(OC)c(O)cc3o2)cc1OC` [Eupatilin], the nucleolar normality score was inactive: 0.992 (1 µM) and active: 0.825 (10 µM).

Turning to `C[C@]12CC[C@@H]3c4ccc(O)cc4C[C@@H](CCCCCCCCC[S+]([O-])CCCC(F)(F)C(F)(F)F)[C@H]3[C@@H]1CC[C@@H]2O` (stereo partly specified) [Fulvestrant], the nucleolar normality score runs as follows: (1 µM) inactive: 0.975; (10 µM) inactive: 0.982.

As for `Clc1ccc(C2(c3ccc(-c4cn[nH]c4)cc3)CCNCC2)cc1`, the nucleolar normality score (1 µM) is inactive: 1.02 and the nucleolar normality score (10 µM) is inactive: 1.03.

For `NC1(Cc2ccc(Cl)cc2)CCN(c2ncnc3[nH]ccc23)CC1`, the nucleolar normality score (1 µM) is inactive: 1.05 and the nucleolar normality score (10 µM) was inactive: 0.875.

As for `Cc1cc(C(C)Nc2ccccc2)c2nc(N3CCOCC3)cc(=O)n2c1` (stereo unspecified), the nucleolar normality score reads like this: (1 µM) inactive: 0.975; (10 µM) active: 0.774.

Turning to `Cc1cc(Nc2cc(N3CCN(C)CC3)nc(Sc3ccc(NC(=O)C4CC4)cc3)n2)n[nH]1` [Tozasertib (VX-680, MK-0457)], the nucleolar normality score (1 µM) was inactive: 0.917 and the nucleolar normality score (10 µM) is inactive: 0.95.
